Data as given in article PMC11995724, “Antibiotic target discovery by integrated phenotypic and activity-based profiling of electrophilic fragments” (Cell chemical biology, 2025).
Among all 3,200 compounds or so, about 75 (2%) showed an effect of 50% or more. Some of the results follow.

These compounds were tested on T1, S. aureus MSSA476. Conditions: relative growth, OD600, TSB; 25 µM; inhibitor.
T1 construct: MSSA476
Design: species or system S. aureus MSSA476 (TSB) or V. cholerae SAD30 (LB); 384-well bacterial growth screen at 25 uM, OD600 relative to DMSO control

Row | Compound | % of control remaining [%]
1 | Cc1ccc(C2=NN(C(=O)CCl)C(c3cccs3)C2)o1 (centres unmarked) [5-I17, 2-chloro-1-[3-(5-methylfuran-2-yl)-5-(thiophen-2-yl)-4,5-dihydro-1H-pyrazol-1-yl]ethan-1-one] | 104.189
2 | Cc1cc(C(=O)CCl)c(C)n1CCc1ccccc1 [10-B18, 2-chloro-1-[2,5-dimethyl-1-(2-phenylethyl)-1H-pyrrol-3-yl]ethan-1-one] | 102.188
3 | CCOc1ccc(C(=O)C(C)Cl)cc1 (centres unmarked) [10-G06, 2-chloro-1-(4-ethoxyphenyl)propan-1-one] | 80.3125
4 | C=CC(=O)N[C@H]1CCCC[C@H]1c1ccnn1C (racemic) [2-G18, rac-N-[(1R,2S)-2-(1-methyl-1H-pyrazol-5-yl)cyclohexyl]prop-2-enamide] | 119.408
5 | Cc1ccc(C2OCCCC2CNC(=O)C(C)Cl)cc1 (centres unmarked) [7-B09, 2-chloro-N-{[2-(4-methylphenyl)oxan-3-yl]methyl}propanamide] | 87.2841
6 | O=C(CCl)N(Cc1ccoc1)C1CCCCC1 [5-B15, 2-chloro-N-cyclohexyl-N-[(furan-3-yl)methyl]acetamide] | 80.1457
7 | Cl.O=C(CCl)NC1CCN(Cc2cscn2)CC1 [7-H04, 2-chloro-N-{1-[(1,3-thiazol-4-yl)methyl]piperidin-4-yl}acetamide hydrochloride] | 88.2261
8 | N#CC(=Cc1cccc(Cl)c1Cl)C(=O)Nc1ccc(F)cc1 [8-P22, 2-cyano-3-(2,3-dichlorophenyl)-N-(4-fluorophenyl)prop-2-enamide] | 70.7054
9 | CC(Cl)C(=O)NCc1csc2ccccc12 (centres unmarked) [7-C11, N-[(1-benzothiophen-3-yl)methyl]-2-chloropropanamide] | 75.0392
10 | CC1CSc2ccccc2N(C(=O)CCl)C1 (centres unmarked) [5-H07, 2-chloro-1-(3-methyl-2,3,4,5-tetrahydro-1,5-benzothiazepin-5-yl)ethan-1-one] | 104.554
11 | CC(Cl)C(=O)NC1CCCn2nccc21 (centres unmarked) [6-J16, 2-chloro-N-{4H,5H,6H,7H-pyrazolo[1,5-a]pyridin-4-yl}propanamide] | 93.561
12 | C=CCNC(=O)C(C#N)=Cc1ccc(C(=O)O)cc1 [8-J04, 4-{2-cyano-2-[(prop-2-en-1-yl)carbamoyl]eth-1-en-1-yl}benzoic acid] | 118.174
13 | C=CC(=O)N(C)Cc1nc2c(n1C)CCCC2 [2-K22, N-methyl-N-[(1-methyl-4,5,6,7-tetrahydro-1H-1,3-benzodiazol-2-yl)methyl]prop-2-enamide] | 103.394
14 | CC(Cl)C(=O)N1CCNC(=O)C1c1c(F)cccc1Cl (centres unmarked) [6-D07, 3-(2-chloro-6-fluorophenyl)-4-(2-chloropropanoyl)piperazin-2-one] | 71.0244
15 | C=CC(=O)Nc1ccnn1C1CCCC1 [2-K13, N-(1-cyclopentyl-1H-pyrazol-5-yl)prop-2-enamide] | 103.394
16 | CC(=O)N(C)Cc1ccc(C(=O)CCl)cc1 [10-H04, N-{[4-(2-chloroacetyl)phenyl]methyl}-N-methylacetamide] | 111.875
17 | C=CC(=O)Nc1ccc(-c2nnnn2C)cc1 [2-F18, N-[4-(1-methyl-1H-1,2,3,4-tetrazol-5-yl)phenyl]prop-2-enamide] | 115.927
18 | C=CC(=O)N[C@H]1CCO[C@@H]1c1ccnn1C(C)C (racemic) [3-K05, rac-N-[(2R,3R)-2-[1-(propan-2-yl)-1H-pyrazol-5-yl]oxolan-3-yl]prop-2-enamide] | 84.9804
19 | CC(Cl)C(=O)NC1CC(C)N(c2ccccc2)C1 (centres unmarked) [6-L15, 2-chloro-N-(5-methyl-1-phenylpyrrolidin-3-yl)propanamide] | 113.707
20 | O=C(CCl)N1CCOCC1c1noc(-c2ccccc2)n1 (centres unmarked) [5-E10, 2-chloro-1-[3-(5-phenyl-1,2,4-oxadiazol-3-yl)morpholin-4-yl]ethan-1-one] | 111.111
21 | CC1CCN(Cc2csc(NC(=O)CCl)n2)CC1.Cl [6-E17, 2-chloro-N-{4-[(4-methylpiperidin-1-yl)methyl]-1,3-thiazol-2-yl}acetamide hydrochloride] | 110.293
22 | C=CC(=O)NCC(C)(C)Cn1cccn1 [1-J04, N-[2,2-dimethyl-3-(1H-pyrazol-1-yl)propyl]prop-2-enamide] | 107.956
23 | Cn1c(CNC=C(C#N)C(=O)Nc2ccccc2)cc(=O)n(C)c1=O [9-G21, 2-cyano-3-{[(1,3-dimethyl-2,6-dioxo-1,2,3,6-tetrahydropyrimidin-4-yl)methyl]amino}-N-phenylprop-2-enamide] | 102.172
24 | C=CC(=O)NC12CC3(C)CC(C)(CC(O)(C3)C1)C2 [1-K17, N-(3-hydroxy-5,7-dimethyladamantan-1-yl)prop-2-enamide] | 111.473
25 | CC(Cl)C(=O)NCCn1cccc1 (centres unmarked) [7-G21, 2-chloro-N-[2-(1H-pyrrol-1-yl)ethyl]propanamide] | 86.3422
26 | C=CC(=O)NCc1ccc(-c2noc(C)n2)cc1 [3-P22, N-{[4-(5-methyl-1,2,4-oxadiazol-3-yl)phenyl]methyl}prop-2-enamide] | 113.191
27 | C=CC(=O)N1CCCn2nc(CO)cc2C1 [3-M10, 1-[2-(hydroxymethyl)-4H,5H,6H,7H,8H-pyrazolo[1,5-a][1,4]diazepin-5-yl]prop-2-en-1-one] | 111.101
28 | CSc1ccc(C=C(C#N)C(=O)N2CCCC2)cc1 [8-I11, 3-[4-(methylsulfanyl)phenyl]-2-(pyrrolidine-1-carbonyl)prop-2-enenitrile] | 119.17
29 | Cc1noc(C)c1COC1CCN(C(=O)C(C)Cl)C1 (centres unmarked) [7-O14, 2-chloro-1-{3-[(3,5-dimethyl-1,2-oxazol-4-yl)methoxy]pyrrolidin-1-yl}propan-1-one] | 124.019
